In the supplement of paper PMC10338343:
± gives the standard deviation. This is a selection; strong and weak results do not stand in their true shares.

These sequences were tested on MIWI (PIWIL1) piRISC loaded with piRNA #1 (30 nt) (assay: pre-steady-state target cleavage rate (min^-1); MIWI and MILI are mouse PIWI proteins and EfPiwi is from a freshwater sponge; tags in brackets are library labels; higher = faster piRNA-guided slicing of the target). Details: guide: piRNA #1 5'p-UGAGGUAGUAGGUUGUAUAGUAUCCAGAGG; auxiliary factor: 500 nM mouse GTSF1.
Procedure, shortened: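 For Cleave-'n-Seq, a transcribed, DNA-blocked target RNA library […] met 1 nM active affinity-purified piRISC with one synthetic guide at 33 °C for 0–8 or 0–960 min in HEPES–potassium acetate buffer, with or without 500 nM GTSF1 partner protein. Uncleaved targets were sequenced and normalised to depth and weakly complementary targets, with three trials pooled and k3 capped at 0.0001 min^-1. A burst-and-steady-state fit supplied the pre-steady-state cleavage rate.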
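Note: 1 nM active piRISC with 0.1 nM target library at 33 °C single turnover.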

Sequence	pre-steady-state target cleavage rate
GGAGACCUUACUAUAGAACCUACUACCUGA	0.155 ± 0.03
CCUCUGGAUAACUAUACAACCUACUACCUCA	1.25 ± 0.075
GGAGACCUAUCUAUACAAGCUACUAGCUCA	0.198 ± 0.028
GGAGUGGAAACUAUACAACCAACUACCUCA	0.104 ± 0.011
GGACUGGAUACUAUACAACCUACUACGACA	0.158 ± 0.029
CCUCUGGAUACUAUACAACCUACUACCGCA	1.68 ± 0.11
GGAGACCUAACUUUACAACCUACUACCACA	0.114 ± 0.035
GGAGACCUUACUAUACACCCUACUACCUCA	1.05 ± 0.063
GGAGACCUUACUAUACAACCUAGUACCACA	0.345 ± 0.065
GGAGUGGAUACUAAACAACCAACUACCUCA	0.1 ± 0.011
GGAGACCAUACUUUACAACCUACUACCUGA	0.566 ± 0.075
GCACUGGAUUCUAUACAACCUACUACCUCA	1.85 ± 0.096
GGAGUGGAUACUAUACAACCUACGACCUCA	0.4 ± 0.042
CCUCUGGAUACUAUACUUGCUACUACCUCA	0.0866 ± 0.014
CCUCUGGAUACUUAUCAACCUACUACCUCA	1.11 ± 0.11
GGAGACCUAACUAUACAACCUUCUAGCUCA	0.0723 ± 0.015
GGUCUGGAUACUAUACAUCCUACUACCUGA	0.395 ± 0.038
GGACUGGAUACAAAACAACCUACUACCUCA	0.763 ± 0.12
GGACUGGAUACUAUAUAACCUACUACCUCA	1.8 ± 0.12
CCUCUGGAUACUAUUCAAGCUACUACCUCA	1.36 ± 0.067
GGAGACCUAACAUUACAACCUACUACCUCA	0.00846 ± 0.0049
GGAGACCUAUCUAUACAACCUAGUACGUCA	0.138 ± 0.026
GGAGUGGAUACUAUACAACCUACCUACCUCA	1.08 ± 0.076
GGACUGGAUAGUAAACAACCUACUACCUCA	0.427 ± 0.054
